# Test results as given in the supplement of paper PMC8728848.
# This is one part of the list.
# B1: rEtpA (Escherichia coli) (protein)
# chain: MNRIYKLKFDKRRNELVVVSEITTGVGNAKATGSVEGEKSPRRGVRAMALSLLSGMMIMAHPAMSANLPTGGQIVAGSGSIQTPSGNQMNIHQNSQNMVANWNSFDIGKGNTVQFDQPSSSAVALNRVVGGGESQIMGNLKANGQVFLVNPNGVLFGEGASVSTSGFVASTRDIKNDDFMNRRYTFSGGQKAGAAIVNQGELTTNAGGYIVLAADRVSNSGTIRTPGGKTVLAASERITLQLDNGGLMSVQVTGDVVNALVENRGLVSARDGQVYLTALGRGMLMNTVLNVSGVVEASGMHRQDGNIVLDGGDSGVVHLSGTLQADNASGQGGKVVVQGKNILLDKGSNITATGGQGGGEVYVGGGWQGKDSNIRNADKVVMQGGARIDVSATQQGNGGTAVLWSDSYTNFHGQISAKGGETGGNGGRVETSSHGNLQAFGTVSASAKKGKAGNWLLDSADITIVNGSNVSKTETTQSPPHTQFAPTAAGSAVSNTSINNRLNNGTSVTILTHRTRTGTAQGGNITVNAAINKSNGSDVNLTLQAGGNITVNNSITSTEGKLNVNLSGARTSNGSITISNNANITTNGGDITVGTTNTSNRVNISINNTTLNASNGNIQLTGTGTDSGILFAGNNRLTASNIALTGNSTSGNAINLTGTATLNATNNITLTGSSTSGNAINLKGNNTLTASNITLTGESTSGNAINLTDTTGTTTLNATNNITMQGTRVQIKHSNITAGNFALNATVAGSEISNTTLTATNNINLAAKTNSASSGVYLKDARITSTNGSITANGTATANGKATHLDGNVTLNASNGRIKLTGNGHGSASGILFAGNNRLTASNIALTGNSTSGNAINLTGTATLNATNDITLTGSSTSGNAINLTGTATLNATNNITLTGSSTSGNAINLKGNNTLTASNITLTGESTSGNAINLTDTTGTTTLNATNNITMQGTRVQIKHSNITAGNFALNATVAGSEISNTTLTATNNINLAAKTNSASSGVYLKDARITSTNGSITANGTATANGKATHLDGNVTLNASNGRIKLTGNGHGSASGILFAGNNRLTASNIALTGNSTSGNAINLTGTATLNATNDITLTGSSTSGNAINLTGTATLNATNNITLTGSSTSGNAINLKGNNTLTASNITLTGESTSGNAINLTDTTGTTTLNATNNITMQGTRVQIKHSNITAGNFALNATVAGSEISNTTLTATNNINLAAKTNSASSGVYLKDARITSTNGSITANGTATANGKATHLDGNVTLNASNGRIKLTGNGHGSASGILFAGNNRLTASNIALTGNSTSGNAINLTGTATLNATNDITLTGSSTSGNAINLTGTATLNATNNITLTGSSTSGNAINLKGNNTLTASNITLTGESTSGNAINLTDTTGTTTLNATNNITMQGTRVQIKHSNITAGNFALNATVAGSEISNTTLTATNNINLAAKTNSASSGVYLKDARITSTNGSITTNGTATANGKATHLDGNVTLNASNGRIKLTGNGHGSASGILFAGNNRLTASNIALTGNSTSGNAINLTGTATLNATNDITLTGSSTSGNAINLTGTATLNATNNITLTGSSTSGNAINLKGNNTLTASNITLTGESTSGNAINLTDTTGTTTLNATNNITMQGTRVQIKHSNITAGNFALNATVAGSEISNTTLTATNNINLAAKTNSASSGVYLKDARITSTNGSITANGTAPANDNATYLDGNVTLNASNGSIKLTGNGNGSTSGILFAGNNTLTASNITLTGNSEVYWQKLGPEQKLISEEDLNSAVDHHHHHH
# What was measured:
# Assay in all cases: glycan array binding signal (z-score within array); higher = stronger binding
# Details in all cases: glycan notation: IUPAC condensed, linker removed
# [1] = target: Gal6S(b1-4)Glc6S
# Outline: (§1)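 From the Consortium for Functional Glycomics database, 3228 arrays were curated, keeping only those whose protein sequence was available. Binding is given as a within-array Z-score averaged across arrays sharing a protein sequence and across linkers. Negative Z-scores can be read as non-binding.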
# [2] = target: Gal6S(b1-4)GlcNAc
# Outline: as §1
# [3] = target: Gal6S(b1-4)GlcNAc6S
# Outline: as §1
# [4] = target: GalNAc(a1-3)Gal
# Outline: as §1
# [5] = target: GalNAc(a1-3)GalNAc
# Outline: as §1
# [6] = target: GalNAc(a1-3)GalNAc(b1-3)Gal(a1-4)Gal(b1-4)Glc
# Outline: as §1
# [7] = target: GalNAc(a1-3)GalNAc(b1-3)Gal(a1-4)Gal(b1-4)GlcNAc
# Outline: as §1
# [8] = target: GalNAc(b1-3)Gal
# Outline: as §1
# [9] = target: GalNAc(b1-3)Gal(a1-4)Gal(b1-4)GlcNAc
# Outline: as §1
# [10] = target: GalNAc(b1-3)Gal(a1-4)Gal(b1-4)GlcNAc(b1-3)Gal(b1-4)Glc
# Outline: as §1
# [11] = target: GalNAc(b1-3)Gal(a1-6)Gal(b1-4)Glc
# Outline: as §1
# [12] = target: GalNAc(b1-3)GalNAc
# Outline: as §1
# [13] = target: GalNAc(b1-3)GlcNAc
# Outline: as §1
# [14] = target: GalNAc(b1-4)Gal(b1-4)Glc
# Outline: as §1
# [15] = target: GalNAc(b1-4)GlcNAc
# Outline: as §1
# [16] = target: GalNAc(b1-4)GlcNAc(b1-2)Man
# Outline: as §1
# [17] = target: GalNAc(b1-4)GlcNAc(b1-2)Man(a1-3)[GalNAc(b1-4)GlcNAc(b1-2)Man(a1-6)]Man(b1-4)GlcNAc(b1-4)GlcNAc
# Outline: as §1
# [18] = target: GalNAc(b1-4)GlcNAc(b1-3)GalNAc(b1-4)GlcNAc
# Outline: as §1
# [19] = target: GalNAc(b1-4)GlcNAc6S
# Outline: as §1
# [20] = target: GalNAc(b1-6)GalNAc
# Outline: as §1
# [21] = target: GalNAc3S(b1-4)GlcNAc
# Outline: as §1
# [22] = target: GalNAc3S(b1-4)GlcNAc3S
# Outline: as §1
# [23] = target: GalNAc3S(b1-4)[Fuc(a1-3)]GlcNAc
# Outline: as §1
# [24] = target: GalNAc4S6S(b1-4)GlcNAc
# Outline: as §1
# [25] = target: GalNAc6S(b1-4)GlcNAc
# Outline: as §1
# [26] = target: Glc(a1-4)Glc
# Outline: as §1
# [27] = target: Glc(a1-4)Glc(a1-4)Glc(a1-4)Glc
# Outline: as §1
# [28] = target: Glc(a1-6)Glc(a1-6)Glc
# Outline: as §1
# [29] = target: Glc(a1-6)Glc(a1-6)Glc(a1-6)Glc
# Outline: as §1
# [30] = target: Glc(b1-4)Glc
# Outline: as §1
# [31] = target: Glc(b1-6)Glc
# Outline: as §1
# [32] = target: GlcA(b1-3)Gal
# Outline: as §1
# [33] = target: GlcA(b1-3)GlcNAc
# Outline: as §1
# [34] = target: GlcA(b1-6)Gal
# Outline: as §1
# [35] = target: GlcA3S(b1-3)Gal(b1-4)GlcNAc(b1-2)Man
# Outline: as §1
# [36] = target: GlcA3S(b1-3)Gal(b1-4)GlcNAc(b1-3)Gal(b1-4)Glc
# Outline: as §1
# [37] = target: GlcNAc(a1-3)Gal(b1-4)GlcNAc
# Outline: as §1
# [38] = target: GlcNAc(a1-4)Gal(b1-3)GlcNAc
# Outline: as §1
# [39] = target: GlcNAc(a1-4)Gal(b1-4)GalNAc
# Outline: as §1
# [40] = target: GlcNAc(a1-4)Gal(b1-4)GlcNAc
# Outline: as §1
# [41] = target: GlcNAc(a1-4)Gal(b1-4)GlcNAc(b1-3)Gal(b1-4)Glc
# Outline: as §1
# [42] = target: GlcNAc(a1-4)Gal(b1-4)GlcNAc(b1-3)Gal(b1-4)GlcNAc
# Outline: as §1
# [43] = target: GlcNAc(a1-4)Gal(b1-4)GlcNAc(b1-3)Gal(b1-4)GlcNAc(b1-3)Gal(b1-4)GlcNAc
# Outline: as §1
# [44] = target: GlcNAc(a1-4)Gal(b1-4)GlcNAc(b1-3)Gal(b1-4)[Fuc(a1-3)]GlcNAc(b1-3)Gal(b1-4)[Fuc(a1-3)]GlcNAc
# Outline: as §1
# [45] = target: GlcNAc(a1-6)Gal(b1-4)GlcNAc
# Outline: as §1
binder,measurement,setting,value
B1,glycan array binding signal (z-score),[1],0.346
same,glycan array binding signal (z-score),[2],0.011
same,glycan array binding signal (z-score),[3],0.353
same,glycan array binding signal (z-score),[4],0.571
same,glycan array binding signal (z-score),[5],0.181
same,glycan array binding signal (z-score),[6],-0.248
same,glycan array binding signal (z-score),[7],-0.107
same,glycan array binding signal (z-score),[8],-0.191
same,glycan array binding signal (z-score),[9],-0.378
same,glycan array binding signal (z-score),[10],-0.297
same,glycan array binding signal (z-score),[11],-0.156
same,glycan array binding signal (z-score),[12],-0.252
same,glycan array binding signal (z-score),[13],-0.214
same,glycan array binding signal (z-score),[14],0.679
same,glycan array binding signal (z-score),[15],-0.268
same,glycan array binding signal (z-score),[16],-0.277
same,glycan array binding signal (z-score),[17],-0.255
same,glycan array binding signal (z-score),[18],-0.412
same,glycan array binding signal (z-score),[19],-0.25
same,glycan array binding signal (z-score),[20],0.129
same,glycan array binding signal (z-score),[21],0.119
same,glycan array binding signal (z-score),[22],-0.247
same,glycan array binding signal (z-score),[23],-0.313
same,glycan array binding signal (z-score),[24],-0.171
same,glycan array binding signal (z-score),[25],-0.237
same,glycan array binding signal (z-score),[26],-0.364
same,glycan array binding signal (z-score),[27],1.05
same,glycan array binding signal (z-score),[28],-0.067
same,glycan array binding signal (z-score),[29],0.087
same,glycan array binding signal (z-score),[30],-0.463
same,glycan array binding signal (z-score),[31],0.231
same,glycan array binding signal (z-score),[32],0.029
same,glycan array binding signal (z-score),[33],-0.337
same,glycan array binding signal (z-score),[34],0.054
same,glycan array binding signal (z-score),[35],-0.154
same,glycan array binding signal (z-score),[36],-0.066
same,glycan array binding signal (z-score),[37],-0.362
same,glycan array binding signal (z-score),[38],2.45
same,glycan array binding signal (z-score),[39],10.8
same,glycan array binding signal (z-score),[40],5.29
same,glycan array binding signal (z-score),[41],4.48
same,glycan array binding signal (z-score),[42],7.75
same,glycan array binding signal (z-score),[43],10.9
same,glycan array binding signal (z-score),[44],6.35
same,glycan array binding signal (z-score),[45],-0.355
